Source: PubChem BioAssay AID1768 (National Center for Advancing Translational Sciences (NCATS), 2009)
Screen size: about 270,000 compounds; about 620 (0.23%) were called active. The shares of active, inactive and inconclusive entries below differ from those in the screen. The call rests on the fitted dose curve; in most records, active means well fitted inhibition curve with a large enough effect in the polarisation, with a control signal flat (not every such curve was filed as active); inconclusive means small, poorly fitted or top-dose-only effect, or effect the other way, or a change in a side signal; inactive means no such curve, though single readings can be large or run the other way; the % refers to the polarisation. Potencies beside an inconclusive call are fits to weak or partial responses and may not hold up. “Side channel” marks fits to a control or component signal instead of the main read-out.

molecular target: Menin (Homo sapiens) (UniProt O00255); experiment: qHTS Assay for Inhibitors Targeting the Menin-MLL Interaction in MLL Related Leukemias: Competition With Texas Red Labeled MLL-derived Mutant Peptide; settings: fluorescence polarization; FP activity change, negative = inhibition: at 61.6 µM (top of the series); on FP activity change, negative = inhibition: % of control where 0% means no effect
UniProt O00255, sequence (O00255 whole entry, looked up): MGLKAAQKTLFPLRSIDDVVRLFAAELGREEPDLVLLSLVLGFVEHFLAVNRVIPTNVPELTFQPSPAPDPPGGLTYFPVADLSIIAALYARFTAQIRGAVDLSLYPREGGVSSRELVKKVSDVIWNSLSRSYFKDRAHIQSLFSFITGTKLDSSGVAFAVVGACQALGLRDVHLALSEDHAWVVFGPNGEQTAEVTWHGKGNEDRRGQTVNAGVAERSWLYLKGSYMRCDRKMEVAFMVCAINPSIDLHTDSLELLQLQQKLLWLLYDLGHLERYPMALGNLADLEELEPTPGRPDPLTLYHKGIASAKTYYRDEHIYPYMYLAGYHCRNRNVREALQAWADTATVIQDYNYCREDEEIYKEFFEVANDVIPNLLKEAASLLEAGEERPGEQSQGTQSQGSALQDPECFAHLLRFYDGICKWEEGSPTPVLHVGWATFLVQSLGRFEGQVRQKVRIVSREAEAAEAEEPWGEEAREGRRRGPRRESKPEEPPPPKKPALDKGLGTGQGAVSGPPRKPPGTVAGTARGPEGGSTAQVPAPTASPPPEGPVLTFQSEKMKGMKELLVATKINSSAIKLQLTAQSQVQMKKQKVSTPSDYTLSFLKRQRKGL
Potency means the concentration at half of the fitted maximal effect; tags describe the fitted curve by direction and shape or compound fluorescence and quenching.

Compound	Potency	FP activity change, negative = inhibition
CCCCCCNC(=O)CNC(=S)N(Cc1cccs1)C1CCCCC1	inconclusive: 14.1 µM [fluorescent, side channel, partial curve]	
COC(=O)[C@H](C)NC(=O)Nc1ccccc1F	inconclusive: 39.8 µM [inhibitor, single point]	
CC1CCN(C(=O)c2ccc(NC(=O)c3cccs3)cc2)CC1	inconclusive: 1.12 µM [inhibitor, full curve, poor fit]	
CC(=O)c1cccc(NC(=O)c2cc(-c3cccs3)on2)c1	inconclusive: 14.1 µM [fluorescent, side channel, partial curve]	
CCNc1nc(SCC(N)=O)nc2sc3c(c12)CCN(C)C3	inconclusive: 39.8 µM [inhibitor, single point]	
COc1ccccc1C(=O)NNC(=O)CCN1C(=O)/C(=C\c2ccccc2)SC1=S	inconclusive: 3.98 µM [quencher, side channel, partial curve, poor fit]	
COc1ccccc1NC(=S)NC(C)=O		inactive: -1.27%
O=C(c1cc2ccccc2oc1=O)N(Cc1ccccc1)CC1CCCO1 (configuration not stated)	inconclusive: 22.4 µM [inhibitor, partial curve]	
O=C(CNS(=O)(=O)c1ccc(F)cc1)Nc1ccc(C(F)(F)F)cc1	inconclusive: 25.1 µM [quencher, side channel, single point]	
NC(=O)C1(N2CCCCC2)CCN(CC(=O)Nc2ccccc2Sc2ccccc2)CC1	inconclusive: 10 µM [fluorescent, side channel, partial curve]	
Cc1ccc(NC(=O)CCCCCC2NC(=O)NC2C)cc1 (configuration not stated)		inactive: 29%
COc1cccc(N=Cc2c(O)n(-c3cccc(C)n3)c(=O)c3ccccc23)c1		inactive: 0.626%
COc1ccc(N2CCN(C(=O)Cc3ccc(S(=O)(=O)N4CCOCC4)s3)CC2)cc1	inconclusive: 31.6 µM [quencher, side channel, partial curve]	
Cc1nc(C2CCC3C4CCC5=CC(=O)CC[C@]5(C)C4CC[C@]23C)cs1 (some centres not stated)	inconclusive: 3.16 µM [fluorescent, side channel, full curve]	
C=CCNc1sc(C(=O)c2ccccc2)c(N)c1-c1nc2ccccc2s1	inconclusive: 12.6 µM [quencher, side channel, partial curve]	
Cc1cc(NC(=O)c2c(F)cccc2F)n(-c2nc3ccccc3[nH]2)n1	inconclusive: 39.8 µM [quencher, side channel, single point]	
O=C(CCn1c(=S)oc2ccccc21)Nc1ccccc1Br	inconclusive: 35.5 µM [fluorescent, side channel, single point]	
O=C(c1cccc(Cl)c1)N1CCC(=O)N(C(COCc2cccc(Cl)c2)Cc2ccccc2)CC1 (configuration not stated)	inconclusive: 17.8 µM [fluorescent, side channel, partial curve]	
S=C(Nc1ccc2cn[nH]c2c1)Nc1ccccc1Cl	inconclusive: 14.1 µM [quencher, side channel, partial curve]	

Compound	Potency	FP activity change, negative = inhibition
O=C1NC(=S)S/C1=C\c1ccc(SCc2ccccc2)o1	inconclusive: 22.4 µM [quencher, side channel, partial curve]	
CCCCCc1cc(O)c2c(C)cc(=O)oc2c1		inactive: 4.18%
Cc1cc(O)cc(O)c1-c1onc(C(F)(F)F)c1-c1cscn1	inconclusive: 12.6 µM [quencher, side channel, single point]	
O=C(Nc1nncs1)c1ccccc1NS(=O)(=O)c1cccs1	inconclusive: 14.1 µM [quencher, side channel, single point]	
NOCc1ccccc1		inactive: 0.573%
CC(C)C1Nc2ccc(C(=O)O)cc2C2C=CCC21 (configuration not stated)	inconclusive: 39.8 µM [inhibitor, single point]	
Cc1ccc(-c2nn(-c3ccccc3)cc2C(=O)N2CCN(c3ccccn3)CC2)cc1	inconclusive: 20 µM [fluorescent, side channel, partial curve, poor fit]	
c1ccc(Nc2cccc(Nc3ccccc3)c2)cc1	inconclusive: 14.1 µM [quencher, side channel, partial curve]	
COC(=O)c1sccc1NC(=O)c1c(C)noc1C	inconclusive: 0.631 µM [inhibitor, full curve, poor fit]	
O=[N+]([O-])c1ccc(-c2nc(-c3cccs3)c(-c3cccs3)[nH]2)cc1	inconclusive: 7.94 µM [quencher, side channel, full curve]	
Cc1ccccc1CN1CCc2c(OCC(=O)N3CCCCC3)cccc2C1=O	inconclusive: 17.8 µM [fluorescent, side channel, partial curve]	
Cc1nn(-c2ccccc2)c2c1c(C)c(CCC(=O)N1CCOCC1)c(=O)n2C	inconclusive: 22.4 µM [fluorescent, side channel, partial curve]	
Cc1cc(C)c2nc(N3CCCC(C(=O)N4CCN(c5ncccn5)CC4)C3)sc2c1 (configuration not stated)	inconclusive: 2.82 µM [fluorescent, side channel, partial curve, poor fit]	
O=C(NC(=S)Nc1cccc(C(F)(F)F)c1)c1csnn1	inconclusive: 17.8 µM [quencher, side channel, partial curve]	
COc1cc(/C=C2/C(=O)N(c3cccc(Br)c3)N=C2C)cc(OC)c1O	inconclusive: 14.1 µM [quencher, side channel, partial curve]	
Cc1ccc(N2C(=O)N3[C@H](c4ccc(Cl)cc4)[C@@H]4C(=O)N(C5CCCCC5)C(=O)[C@@H]4[C@]3(Cc3ccccc3)C2=O)cc1	inconclusive: 39.8 µM [fluorescent, side channel, single point]	
COc1cccc(-c2nc(NCc3cccs3)c3ccccc3n2)c1	inconclusive: 12.6 µM [quencher, side channel, partial curve]	
Cc1onc(-c2ccccc2Cl)c1C(=O)Nc1ccc(S(=O)(=O)Nc2nccs2)cc1	inconclusive: 25.1 µM [quencher, side channel, partial curve]	
O=C(COc1ccc(F)cc1Cl)Nc1cc(S(=O)(=O)N2CCOCC2)ccc1N1CCCCC1	inconclusive: 3.98 µM [fluorescent, side channel, full curve, poor fit]	

Compound	Potency	FP activity change, negative = inhibition
Cc1ccc(C)c2c1[nH]c1ccccc12	inconclusive: 25.1 µM [quencher, side channel, partial curve]	
CCN(CC)C(=O)CSc1nnc(SCc2ccc(Cl)cc2)s1	inconclusive: 3.16 µM [fluorescent, side channel, full curve]	
O=C(Nc1ccccc1)C(=O)Nc1ccccn1	inconclusive: 14.1 µM [inhibitor, partial curve]	
COCc1c(N)c(C)nc(Cl)c1C#N	inconclusive: 14.1 µM [quencher, side channel, partial curve]	
CCOC(=O)C1(CCOc2ccccc2)CCN(Cc2cccc(F)c2)CC1	inconclusive: 3.55 µM [fluorescent, side channel, single point]	
Cc1ccccc1NCc1ccc(O)c2ncccc12		inactive: 5.94%
CCNc1c2c(nc3ccccc13)CC(C)(C)CC2=O		inactive: -10.9%
N#CCCn1c(=O)c(-c2ccc(Cl)cc2)nc2cnc(Nc3ccccc3)nc21	active: 10 µM	
Cc1ccc(C(=O)Nc2cccc([N+](=O)[O-])c2)cc1S(=O)(=O)Nc1ccc(NC(=O)c2ccccc2)cc1	inconclusive: 6.31 µM [quencher, side channel, partial curve]	
COc1cc(/C=C(\C#N)c2nc3ccccc3s2)cc([N+](=O)[O-])c1O	inconclusive: 12.6 µM [quencher, side channel, partial curve]	
C[C@@H]1[C@H](C)CC[C@@]2(C(=O)O)CC[C@]3(C)C(=CC[C@H]4[C@@]5(C)CC[C@@H](O)C(C)(C)[C@@H]5CC[C@@]43C)[C@@H]12	inconclusive: 20 µM [inhibitor, single point]	
Cc1ccc(C2=NN(C(=O)CN3C(=O)c4ccccc4S3(=O)=O)C(c3ccco3)C2)cc1 (configuration not stated)	inconclusive: 3.98 µM [fluorescent, side channel, full curve, poor fit]	
CCOc1ccc(OCCSc2nc3ccccc3[nH]2)cc1	inconclusive: 22.4 µM [quencher, side channel, partial curve, poor fit]	
COc1ccc2c(c1)-c1c(sn(-c3ccc(OC)c(OC)c3)c1=S)C(C)(C)N2	inconclusive: 11.2 µM [quencher, side channel, partial curve]	
Cc1cccn2c(=O)c3cc(C(=O)N4CC(C)CC(C)C4)sc3nc12 (configuration not stated)	inconclusive: 39.8 µM [inhibitor, single point]	
O=C(CSc1nnc(-c2cccs2)n1CC1CCCO1)c1cc2ccccc2o1 (configuration not stated)	inconclusive: 25.1 µM [quencher, side channel, single point]	
N#CC1=C(N)N(c2ccc(Br)cc2)C2=C(C(=O)CCC2)C1c1cccnc1 (configuration not stated)	inconclusive: 39.8 µM [quencher, single point]	
CC(C)C(=O)NC(=S)/C=C1/N(C)c2ccccc2C1(C)C	inconclusive: 28.2 µM [fluorescent, side channel, partial curve]	
CCOC(=O)c1cc(NC(=O)CNCC(c2ccccc2)N(C)C)cc(C(=O)OCC)c1 (configuration not stated)	inconclusive: 8.91 µM [fluorescent, side channel, full curve, poor fit]	
